The list shows a part of the results. The list includes weakly bound sequences.

This test has as its target T1, MBP-FoxP3dN (UniProt Q99JB6).
T1 sequence: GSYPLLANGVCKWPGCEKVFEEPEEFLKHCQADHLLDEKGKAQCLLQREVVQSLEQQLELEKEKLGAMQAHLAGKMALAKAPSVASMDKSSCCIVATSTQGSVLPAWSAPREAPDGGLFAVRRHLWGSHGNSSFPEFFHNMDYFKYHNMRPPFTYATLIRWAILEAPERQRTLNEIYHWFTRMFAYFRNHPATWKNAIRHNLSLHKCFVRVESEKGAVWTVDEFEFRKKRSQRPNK
In words: PD-seq (MBP pull-down with sequencing). To be noted: 20 mM Tris-HCl pH 7.5, 100 mM NaCl, 1.5 mM MgCl2, 0.4 uM protein, 0.1 uM dsDNA library, 30 min, room temperature, amylose pull-down; high values mean tight binding; double strand, one strand shown.
Regarding “GATGATTGTTCTCCCAGCTGATGAATTACTCCAATCGAGTAAACAAATTTTCCTAATCTTTCTGTTCAAGCGCCATCTAC”, the binding signal (RPM ratio (pull-down/input)) was determined as 0.305.
“GATGATTGTTCTCCCAGCTGATGAATTAGAAGACTCGAGTAAACAAATTTTCCTAATCTTTCTGTTCAAGCGCCATCTAC”: the binding signal (RPM ratio (pull-down/input)) amounted to 0.289.
Take “GATGATTGTTCTCCCAGCTGATGAATTCATGCCATCGAGTAAACAAATTTTCCTAATCTTTCTGTTCAAGCGCCATCTAC”: the binding signal (RPM ratio (pull-down/input)) was found to be 1.88.
As for “GATGATTGTTCTCCCAGCTGATGAATTTAACCGGTCGAGTAAACAAATTTTCCTAATCTTTCTGTTCAAGCGCCATCTAC”, the binding signal (RPM ratio (pull-down/input)) was determined as 0.193.
Then “GATGATTGTTCTCCCAGCTGATGAATTACGTAGATCGAGTAAACAAATTTTCCTAATCTTTCTGTTCAAGCGCCATCTAC”, with 0.417; and “GATGATTGTTCTCCCAGCTGATGAATTGCCCCATTCGAGTAAACAAATTTTCCTAATCTTTCTGTTCAAGCGCCATCTAC”, with 0.487; and “GATGATTGTTCTCCCAGCTGATGAATTGGGCTAGTCGAGTAAACAAATTTTCCTAATCTTTCTGTTCAAGCGCCATCTAC”, with 0.755.
Then “GATGATTGTTCTCCCAGCTGATGAATTGGGAGGGTCGAGTAAACAAATTTTCCTAATCTTTCTGTTCAAGCGCCATCTAC”, with 0.3.
Then “GATGATTGTTCTCCCAGCTGATGAATTATCTCGATCGAGTAAACAAATTTTCCTAATCTTTCTGTTCAAGCGCCATCTAC”, with 0.258.
On to “GATGATTGTTCTCCCAGCTGATGAATTTGGGGCATCGAGTAAACAAATTTTCCTAATCTTTCTGTTCAAGCGCCATCTAC”, for which the binding signal (RPM ratio (pull-down/input)) stood at 0.914.
Then “GATGATTGTTCTCCCAGCTGATGAATTATTTTATTCGAGTAAACAAATTTTCCTAATCTTTCTGTTCAAGCGCCATCTAC”, with 0.489.
Then “GATGATTGTTCTCCCAGCTGATGAATTTCGTACATCGAGTAAACAAATTTTCCTAATCTTTCTGTTCAAGCGCCATCTAC”, with 0.613; and “GATGATTGTTCTCCCAGCTGATGAATTCCGACAATCGAGTAAACAAATTTTCCTAATCTTTCTGTTCAAGCGCCATCTAC”, with 0.345.
With “GATGATTGTTCTCCCAGCTGATGAATTGCCGGCGTCGAGTAAACAAATTTTCCTAATCTTTCTGTTCAAGCGCCATCTAC”, the binding signal (RPM ratio (pull-down/input)) turned out to be 0.602.
In the case of “GATGATTGTTCTCCCAGCTGATGAATTCGGTTAATCGAGTAAACAAATTTTCCTAATCTTTCTGTTCAAGCGCCATCTAC”, the binding signal (RPM ratio (pull-down/input)) was 0.418.
Then “GATGATTGTTCTCCCAGCTGATGAATTCCCAGTGTCGAGTAAACAAATTTTCCTAATCTTTCTGTTCAAGCGCCATCTAC”, with 0.318.
In the case of “GATGATTGTTCTCCCAGCTGATGAATTGTAATCCTCGAGTAAACAAATTTTCCTAATCTTTCTGTTCAAGCGCCATCTAC”, the binding signal (RPM ratio (pull-down/input)) stood at 0.859.
Turning to “GATGATTGTTCTCCCAGCTGATGAATTGATATGATCGAGTAAACAAATTTTCCTAATCTTTCTGTTCAAGCGCCATCTAC”, the binding signal (RPM ratio (pull-down/input)) came to 0.644.
“GATGATTGTTCTCCCAGCTGATGAATTATCAGGCTCGAGTAAACAAATTTTCCTAATCTTTCTGTTCAAGCGCCATCTAC”: the binding signal (RPM ratio (pull-down/input)) stood at 0.299.
Take “GATGATTGTTCTCCCAGCTGATGAATTTCAGCGATCGAGTAAACAAATTTTCCTAATCTTTCTGTTCAAGCGCCATCTAC”: the binding signal (RPM ratio (pull-down/input)) worked out at 0.456.
Then “GATGATTGTTCTCCCAGCTGATGAATTCGATTTGTCGAGTAAACAAATTTTCCTAATCTTTCTGTTCAAGCGCCATCTAC”, with 2.96; and “GATGATTGTTCTCCCAGCTGATGAATTCTCAGGATCGAGTAAACAAATTTTCCTAATCTTTCTGTTCAAGCGCCATCTAC”, with 0.153.
Then “GATGATTGTTCTCCCAGCTGATGAATTTGGTGAGTCGAGTAAACAAATTTTCCTAATCTTTCTGTTCAAGCGCCATCTAC”, with 0.814.
Then “GATGATTGTTCTCCCAGCTGATGAATTGAAGTAGTCGAGTAAACAAATTTTCCTAATCTTTCTGTTCAAGCGCCATCTAC”, with 0.291; and “GATGATTGTTCTCCCAGCTGATGAATTGAAGACGTCGAGTAAACAAATTTTCCTAATCTTTCTGTTCAAGCGCCATCTAC”, with 0.255; and “GATGATTGTTCTCCCAGCTGATGAATTGCGGGTTTCGAGTAAACAAATTTTCCTAATCTTTCTGTTCAAGCGCCATCTAC”, with 1.16.
For “GATGATTGTTCTCCCAGCTGATGAATTAGTGGTCTCGAGTAAACAAATTTTCCTAATCTTTCTGTTCAAGCGCCATCTAC”, the binding signal (RPM ratio (pull-down/input)) is 2.22.
Then “GATGATTGTTCTCCCAGCTGATGAATTCCTAAATTCGAGTAAACAAATTTTCCTAATCTTTCTGTTCAAGCGCCATCTAC”, with 0.286.
Then “GATGATTGTTCTCCCAGCTGATGAATTAAACTCTTCGAGTAAACAAATTTTCCTAATCTTTCTGTTCAAGCGCCATCTAC”, with 0.285; and “GATGATTGTTCTCCCAGCTGATGAATTCAGCCTATCGAGTAAACAAATTTTCCTAATCTTTCTGTTCAAGCGCCATCTAC”, with 1.64; and “GATGATTGTTCTCCCAGCTGATGAATTCGTCAGGTCGAGTAAACAAATTTTCCTAATCTTTCTGTTCAAGCGCCATCTAC”, with 0.551.
Then “GATGATTGTTCTCCCAGCTGATGAATTTTGCCGATCGAGTAAACAAATTTTCCTAATCTTTCTGTTCAAGCGCCATCTAC”, with 0.82.
Consider “GATGATTGTTCTCCCAGCTGATGAATTTGATAGATCGAGTAAACAAATTTTCCTAATCTTTCTGTTCAAGCGCCATCTAC”, for which the binding signal (RPM ratio (pull-down/input)) is 0.347.
As to “GATGATTGTTCTCCCAGCTGATGAATTCGCATTATCGAGTAAACAAATTTTCCTAATCTTTCTGTTCAAGCGCCATCTAC”, the binding signal (RPM ratio (pull-down/input)) was determined as 3.53.
Take “GATGATTGTTCTCCCAGCTGATGAATTTGGAGCGTCGAGTAAACAAATTTTCCTAATCTTTCTGTTCAAGCGCCATCTAC”: the binding signal (RPM ratio (pull-down/input)) stood at 0.534.
Then “GATGATTGTTCTCCCAGCTGATGAATTTACAACCTCGAGTAAACAAATTTTCCTAATCTTTCTGTTCAAGCGCCATCTAC”, with 0.538; and “GATGATTGTTCTCCCAGCTGATGAATTAGAAGCCTCGAGTAAACAAATTTTCCTAATCTTTCTGTTCAAGCGCCATCTAC”, with 0.397.
Regarding “GATGATTGTTCTCCCAGCTGATGAATTCCCACGGTCGAGTAAACAAATTTTCCTAATCTTTCTGTTCAAGCGCCATCTAC”, the binding signal (RPM ratio (pull-down/input)) stood at 0.204.
Then “GATGATTGTTCTCCCAGCTGATGAATTGTCAGGGTCGAGTAAACAAATTTTCCTAATCTTTCTGTTCAAGCGCCATCTAC”, with 0.252.
Then “GATGATTGTTCTCCCAGCTGATGAATTGGCATGATCGAGTAAACAAATTTTCCTAATCTTTCTGTTCAAGCGCCATCTAC”, with 0.668; and “GATGATTGTTCTCCCAGCTGATGAATTAAACATCTCGAGTAAACAAATTTTCCTAATCTTTCTGTTCAAGCGCCATCTAC”, with 0.782.
With “GATGATTGTTCTCCCAGCTGATGAATTCTGTGAGTCGAGTAAACAAATTTTCCTAATCTTTCTGTTCAAGCGCCATCTAC”, the binding signal (RPM ratio (pull-down/input)) was found to be 2.1.
Consider “GATGATTGTTCTCCCAGCTGATGAATTTACTAATTCGAGTAAACAAATTTTCCTAATCTTTCTGTTCAAGCGCCATCTAC”, for which the binding signal (RPM ratio (pull-down/input)) turned out to be 0.598.
Regarding “GATGATTGTTCTCCCAGCTGATGAATTGTCCCGCTCGAGTAAACAAATTTTCCTAATCTTTCTGTTCAAGCGCCATCTAC”, the binding signal (RPM ratio (pull-down/input)) was 0.272.
As for “GATGATTGTTCTCCCAGCTGATGAATTCACGCCGTCGAGTAAACAAATTTTCCTAATCTTTCTGTTCAAGCGCCATCTAC”, the binding signal (RPM ratio (pull-down/input)) worked out at 0.726.
For “GATGATTGTTCTCCCAGCTGATGAATTATTGCCATCGAGTAAACAAATTTTCCTAATCTTTCTGTTCAAGCGCCATCTAC”, the binding signal (RPM ratio (pull-down/input)) was found to be 2.93.
Then “GATGATTGTTCTCCCAGCTGATGAATTTTAAATATCGAGTAAACAAATTTTCCTAATCTTTCTGTTCAAGCGCCATCTAC”, with 0.403; and “GATGATTGTTCTCCCAGCTGATGAATTTCTCACCTCGAGTAAACAAATTTTCCTAATCTTTCTGTTCAAGCGCCATCTAC”, with 0.261; and “GATGATTGTTCTCCCAGCTGATGAATTTACTACCTCGAGTAAACAAATTTTCCTAATCTTTCTGTTCAAGCGCCATCTAC”, with 0.599.
As to “GATGATTGTTCTCCCAGCTGATGAATTACCAAACTCGAGTAAACAAATTTTCCTAATCTTTCTGTTCAAGCGCCATCTAC”, the binding signal (RPM ratio (pull-down/input)) came to 0.349.
Consider “GATGATTGTTCTCCCAGCTGATGAATTGAAGGCTTCGAGTAAACAAATTTTCCTAATCTTTCTGTTCAAGCGCCATCTAC”, for which the binding signal (RPM ratio (pull-down/input)) was determined as 0.432.
Then “GATGATTGTTCTCCCAGCTGATGAATTTCAGTGGTCGAGTAAACAAATTTTCCTAATCTTTCTGTTCAAGCGCCATCTAC”, with 0.44; and “GATGATTGTTCTCCCAGCTGATGAATTCTGAAGGTCGAGTAAACAAATTTTCCTAATCTTTCTGTTCAAGCGCCATCTAC”, with 0.201.
Then “GATGATTGTTCTCCCAGCTGATGAATTAGCCCGATCGAGTAAACAAATTTTCCTAATCTTTCTGTTCAAGCGCCATCTAC”, with 0.188; and “GATGATTGTTCTCCCAGCTGATGAATTCAAGGATTCGAGTAAACAAATTTTCCTAATCTTTCTGTTCAAGCGCCATCTAC”, with 0.248.
With “GATGATTGTTCTCCCAGCTGATGAATTACATGCATCGAGTAAACAAATTTTCCTAATCTTTCTGTTCAAGCGCCATCTAC”, the binding signal (RPM ratio (pull-down/input)) stood at 1.56.
Consider “GATGATTGTTCTCCCAGCTGATGAATTGTTTAACTCGAGTAAACAAATTTTCCTAATCTTTCTGTTCAAGCGCCATCTAC”, for which the binding signal (RPM ratio (pull-down/input)) was 0.898.
As for “GATGATTGTTCTCCCAGCTGATGAATTAGCAGCGTCGAGTAAACAAATTTTCCTAATCTTTCTGTTCAAGCGCCATCTAC”, the binding signal (RPM ratio (pull-down/input)) amounted to 0.645.
Then “GATGATTGTTCTCCCAGCTGATGAATTAGGGCCTTCGAGTAAACAAATTTTCCTAATCTTTCTGTTCAAGCGCCATCTAC”, with 1.51.
Then “GATGATTGTTCTCCCAGCTGATGAATTACTCACCTCGAGTAAACAAATTTTCCTAATCTTTCTGTTCAAGCGCCATCTAC”, with 0.349; and “GATGATTGTTCTCCCAGCTGATGAATTGGAATTTTCGAGTAAACAAATTTTCCTAATCTTTCTGTTCAAGCGCCATCTAC”, with 0.431.
Then “GATGATTGTTCTCCCAGCTGATGAATTTAATCTTTCGAGTAAACAAATTTTCCTAATCTTTCTGTTCAAGCGCCATCTAC”, with 0.311; and “GATGATTGTTCTCCCAGCTGATGAATTTGCCCTTTCGAGTAAACAAATTTTCCTAATCTTTCTGTTCAAGCGCCATCTAC”, with 0.505.
